# From PubChem BioAssay (NCATS)
# Several values for one entry are separate records, joined by “and”; a condition that tells them apart may be missing. Identical values can stand only once. Inconclusive results, whose numbers are uncertain, are shown with a selection of clear calls. A potency beside an inconclusive call is a rough fit, not a confirmed value. For part of these data: A note “side channel” means that the fit belongs to a control or component signal, not to the main read-out. A structure can be active in one record and inactive in another. Activity calls are given as the source filed them. Unless noted, calls follow the shape of the dose curve; as a rule, active = well fitted curve in the direction sought with a large enough effect; inconclusive = small, poorly fitted or top-dose-only effect, or another doubt; inactive = no such curve, though single readings can be large; an effect the other way counts as inactive or inconclusive.
# How the values were obtained:
# [1] = NS1 protein of Zika virus - qHTS assay to identify small molecule inhibitors in human HEK 293 cells (AID 1347053); also: nearly all actives have a fitted effect of over 55% in size
# Outline: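 TR-FRET signal from two anti-ZIKV NS1 antibodies quantified NS1 in HEK 293 cells 24 h after MR766 infection at MOI = 0.5; compounds were added 1 h before virus. Uninfected cells and infected cells defined the NS1 normalization range.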
# [2] = target: T1, Tyrosine-protein phosphatase non-receptor type substrate 1 (Homo sapiens) + Leukocyte surface antigen CD47 (Homo sapiens) (UniProt P78324+Q08722); test: CD47-SIRPalpha protein protein interaction - HTRF assay qHTS validation (AID 1347058; active = well fitted curve in the direction sought with a large enough effect in the signal ratio, not every such curve was filed as active; inconclusive = small, poorly fitted or top-dose-only effect, or effect the other way, or a change in a side signal; inactive = no such curve, though single readings can be large or run the other way; the % refers to the signal ratio)
# Outline: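 Soluble extracellular domains (6His-CD47, Avi-tag-biotinylated SIRPalpha) in PBS pH 7.4 with 0.05% IGEPAL CA-630. Compounds were preincubated 30 min at RT with CD47 and anti-His-Eu, then SIRPalpha and SAV-XL665 were added. TR-FRET 665/615 ratio.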
# [3] = qHTS of pediatric cancer cell lines to identify multiple opportunities for drug repurposing: Primary screen for DAOY cells (AID 1347090); details: DAOY medulloblastoma viability, CellTiter-Glo luminescence, 48 h; activity change, negative = cytotoxic: at 46 µM (top of the series) unless noted; also: nearly all actives have a fitted effect of over 55% in size;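 as to activity change, negative = cytotoxic: plate controls were DMSO for no effect and bortezomib for full effect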
# Outline: (§1)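 Cell viability, CellTiter-Glo luminescence; 500-1,000 cells/well, 8- or 11-point titration, 48 h compound exposure at 37 degrees C, 5% CO2. Controls: DMSO neutral, bortezomib 2.3 µM final as positive.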
# [4] = target: T1, Tyrosine-protein phosphatase non-receptor type substrate 1 (Homo sapiens) + Leukocyte surface antigen CD47 (Homo sapiens); test: CD47-SIRPalpha protein protein interaction - LANCE assay qHTS validation (AID 1347057; active = well fitted curve in the direction sought with a large enough effect in the signal ratio, with a control signal flat, not every such curve was filed as active; inconclusive = small, poorly fitted or top-dose-only effect, or effect the other way, or a change in a side signal; inactive = no such curve, though single readings can be large or run the other way; the % refers to the signal ratio)
# Outline: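 Inhibition of soluble CD47/SIRPalpha ectodomain association by titrated compounds, measured as 665/615 nm time-resolved FRET ratio after sequential 30 min room-temperature incubations.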
# [5] = qHTS of pediatric cancer cell lines to identify multiple opportunities for drug repurposing: Primary screen for SJ-GBM2 cells (AID 1347091);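 as to activity change, negative = cytotoxic: plate controls were DMSO neutral control for no effect and bortezomib for full effect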
# Outline: as §1
# [6] = qHTS of pediatric cancer cell lines to identify multiple opportunities for drug repurposing: Primary screen for SK-N-MC cells (AID 1347093); details: SK-N-MC viability, CellTiter-Glo luminescence, 48 h; activity change, negative = cytotoxic: at 46 µM (top of the series)
# Outline: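 Metabolically active cells were quantified by ATP-dependent luminescence (CellTiter-Glo, 15 min at room temperature) following 48 h treatment. Cells had been plated at 500-1,000 per well and settled for 5 h beforehand.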
# [7] = qHTS of pediatric cancer cell lines to identify multiple opportunities for drug repurposing: Primary screen for BT-37 cells (AID 1347094);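 as to activity change, negative = cytotoxic: plate controls were DMSO for no effect and bortezomib for full effect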
# Outline: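 Quantitative HTS format: each compound titrated (MIPE 11 points from 0.78 nM, NPC 8 points from 0.59 nM) onto cells plated 5 hours earlier. After 48 h at 37 degrees C, CellTiter-Glo luminescence was recorded.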
# [8] = qHTS of pediatric cancer cell lines to identify multiple opportunities for drug repurposing: Primary screen for TC32 cells (AID 1347089); also: nearly all actives have a fitted effect of over 60% in size; as to activity change, negative = cytotoxic: % is scaled to controls: 0 for no effect and ±100 for the full control effect
# Outline: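 TC32 cells, 500-1,000/well in growth medium, compound-treated 48 h at 37 °C; viability from CellTiter-Glo luminescence. Primary screen: MIPE 11-point (0.78 nM–46 µM final), NPC 8-point (0.59 nM–46 µM final); confirmatory at 11-point dilutions.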
# [9] = qHTS of pediatric cancer cell lines to identify multiple opportunities for drug repurposing: Primary screen for A673 cells (AID 1347092); details: A673 Ewing sarcoma viability, CellTiter-Glo ATP luminescence, 48 h; activity change, negative = cytotoxic: at 46 µM (top of the series); also: nearly all actives have a fitted effect of over 45% in size; as to activity change, negative = cytotoxic: % is scaled to controls: 0 for no effect and ±100 for the full control effect
# Outline: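 A673 cells (500-1,000 cells/well) were treated 48 hours at 37 degrees C with compounds at 11-point (0.78 nM to 46 µM) or 8-point (0.59 nM to 46 µM) dilutions. Viability read by CellTiter-Glo luminescence; concentration-response curves fitted.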
# [10] = target: T1, Tyrosine-protein phosphatase non-receptor type substrate 1 (Homo sapiens) + Leukocyte surface antigen CD47 (Homo sapiens); test: CD47-SIRPalpha protein protein interaction - Alpha assay qHTS validation (AID 1347059);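 also: bead proximity luminescence from CD47 binding SIRPalpha after compound preincubation with SIRPalpha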
# Outline: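 AlphaScreen signal between CD47-His (12.5 nM) and biotin-SIRPalpha (25 nM) soluble extracellular domains, bead-captured via Ni-NTA and streptavidin. Compounds, in 7-point titrations, met SIRPalpha 30 min before CD47; PBS pH 7.4 with 0.05% IGEPAL.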
# Potency is read from the fitted curve at half-maximal effect; tags tell the direction and shape of the fitted curve.
# T1 sequence (P78324 whole entry, looked up, the tested form may be a part): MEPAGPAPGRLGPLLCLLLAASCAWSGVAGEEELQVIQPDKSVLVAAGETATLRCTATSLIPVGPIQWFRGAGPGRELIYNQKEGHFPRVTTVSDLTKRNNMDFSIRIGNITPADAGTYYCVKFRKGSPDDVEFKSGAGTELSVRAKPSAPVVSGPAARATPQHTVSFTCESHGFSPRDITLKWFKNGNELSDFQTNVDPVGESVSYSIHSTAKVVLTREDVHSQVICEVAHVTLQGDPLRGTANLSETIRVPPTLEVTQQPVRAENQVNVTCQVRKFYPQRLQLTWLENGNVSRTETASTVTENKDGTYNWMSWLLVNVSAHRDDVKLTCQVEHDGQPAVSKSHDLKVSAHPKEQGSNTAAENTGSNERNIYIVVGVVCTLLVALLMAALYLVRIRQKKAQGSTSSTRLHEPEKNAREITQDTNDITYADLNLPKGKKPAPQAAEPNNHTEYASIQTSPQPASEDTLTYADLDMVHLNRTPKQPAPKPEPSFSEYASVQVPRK
# T1 sequence (Q08722 whole entry, looked up, the tested form may be a part): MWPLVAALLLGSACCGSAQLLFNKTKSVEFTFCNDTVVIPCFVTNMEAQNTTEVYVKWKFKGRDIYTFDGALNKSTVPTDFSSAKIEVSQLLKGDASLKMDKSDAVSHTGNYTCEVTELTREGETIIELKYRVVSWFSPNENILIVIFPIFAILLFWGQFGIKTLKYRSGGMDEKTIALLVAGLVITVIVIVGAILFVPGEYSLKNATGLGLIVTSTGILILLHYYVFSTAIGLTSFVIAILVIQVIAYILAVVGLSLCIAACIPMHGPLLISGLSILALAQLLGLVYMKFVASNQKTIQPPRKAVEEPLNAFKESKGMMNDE
compound,measurement,setting,value
Cn1cnc2c1c(=O)[nH]c(=O)n2C,Potency,[1],"inconclusive: 33.2 µM [inhibitor, single point]"
same,Potency,[2],inactive
same,Potency,[3],"inconclusive: 23.5 µM [cytotoxic, single point]"
NC(=O)OCC(COC(N)=O)c1ccccc1,Potency,[1],inactive
CNC(=O)c1cc(Oc2ccc(NC(=O)Nc3ccc(Cl)c(C(F)(F)F)c3)c(F)c2)ccn1,Potency,[1],"inconclusive: 37.2 µM [inhibitor, single point]"
OCCN(CCO)c1nc(N2CCCCC2)c2nc(N(CCO)CCO)nc(N3CCCCC3)c2n1,Potency,[1],"inconclusive: 37.2 µM [inhibitor, single point]"
same,Potency,[4],"inconclusive: 16.5 µM [side channel, falling, partial curve]"
same,Potency,[2],"inconclusive: 0.826 µM [inhibitor, full curve]"
same,Potency,[5],"inconclusive: 14.8 µM [cytotoxic, partial curve]"
same,Potency,[6],"inconclusive: 16.8 µM [cytotoxic, partial curve, poor fit]"
same,Potency,[7],"inconclusive: 24.3 µM [cytotoxic, single point]"
CC(=O)OCC(=O)[C@@]1(O)[C@H](C)C[C@H]2[C@@H]3C=C(C)C4=Cc5c(cnn5-c5ccccc5)C[C@]4(C)[C@@H]3[C@@H](O)C[C@@]21C,Potency,[1],active: 11.8 µM
same,Potency,[8],"inconclusive: 23.4 µM [cytotoxic, single point]"
same,Potency,[3],active: 11.8 µM
same,Potency,[9],active: 2.96 µM
COc1ncnc(NS(=O)(=O)c2ccc(N)cc2)c1OC,Potency,[1],"inconclusive: 37.2 µM [inhibitor, single point]"
COCCCCC(=NOCCN)c1ccc(C(F)(F)F)cc1,Potency,[1],"inconclusive: 37.2 µM [inhibitor, single point]"
same,Potency,[8],inactive
same,Potency,[3],"inconclusive: 18.7 µM [cytotoxic, partial curve]"
S=c1nc[nH]c2nc[nH]c12,Potency,[1],"inconclusive: 35.5 µM [inhibitor, single point] and active: 14.8 µM"
same,Potency,[8],active: 8.36 µM and active: 20.8 µM
same,Potency,[3],active: 2.66 µM and active: 5.9 µM
same,Potency,[5],active: 1.19 µM and active: 3.32 µM
same,Potency,[9],"inconclusive: 1.18 µM [cytotoxic, full curve]"
same,Potency,[7],active: 2.46 µM and active: 3.43 µM
COc1ccc(C(=O)CC(=O)c2ccc(C(C)(C)C)cc2)cc1,Potency,[1],inactive
Clc1ccc(C(Cn2ccnc2)OCc2ccsc2Cl)c(Cl)c1 (configuration not stated),Potency,[1],"inconclusive: 37.2 µM [inhibitor, single point]"
same,Potency,[8],"inconclusive: 33.3 µM [cytotoxic, partial curve, poor fit]"
same,Potency,[3],"inconclusive: 37.2 µM [cytotoxic, single point]"
same,Potency,[5],"inconclusive: 21.1 µM [cytotoxic, single point] and inconclusive: 33.2 µM [cytotoxic, single point]"
same,"activity change, negative = cytotoxic",[9],inconclusive: -54.8%
same,Potency,[6],"inconclusive: 29.6 µM [cytotoxic, single point]"
same,Potency,[7],"inconclusive: 43.2 µM [cytotoxic, single point]"
CN(CCOc1ccc(NS(C)(=O)=O)cc1)CCc1ccc(NS(C)(=O)=O)cc1,Potency,[1],inactive
same,Potency,[2],inactive
same,Potency,[5],inactive
same,Potency,[6],"inconclusive: 20.9 µM [cytotoxic, partial curve, poor fit]"
same,Potency,[7],inactive
CCOC(=O)C1=C[C@]2(CC)CCCN3CCc4c(n1c1ccccc41)[C@@H]32,Potency,[1],"inconclusive: 37.2 µM [inhibitor, single point]"
same,Potency,[10],inactive
same,Potency,[5],"inconclusive: 33.2 µM [cytotoxic, single point]"
same,Potency,[6],"active: 13.2 µM and inconclusive: 33.5 µM [cytotoxic, single point]"
same,Potency,[7],"inconclusive: 43.2 µM [cytotoxic, single point]"
CN1CCN(CCCN2c3ccccc3Sc3ccc(Cl)cc32)CC1,Potency,[1],"active: 23.5 µM and inconclusive: 35.5 µM [inhibitor, single point]"
same,Potency,[10],"inconclusive: 16.5 µM [inhibitor, partial curve]"
same,Potency,[5],"inconclusive: 29.6 µM [cytotoxic, single point] and inconclusive: 26.6 µM [cytotoxic, single point]"
same,Potency,[9],"inconclusive: 33.5 µM [cytotoxic, single point]"
same,Potency,[6],"inconclusive: 23.7 µM [cytotoxic, single point]"
same,Potency,[7],"active: 9.68 µM and inconclusive: 17.4 µM [cytotoxic, single point]"
CN(C)N=Nc1nc[nH]c1C(N)=O,Potency,[1],"inconclusive: 37.2 µM [inhibitor, partial curve, poor fit]"
same,Potency,[8],"inconclusive: 5.23 µM [cytotoxic, full curve]"
same,Potency,[3],"inconclusive: 0.469 µM [cytotoxic, full curve, poor fit]"
same,Potency,[5],"inconclusive: 1.48 µM [cytotoxic, full curve]"
same,Potency,[7],"inconclusive: 13.7 µM [cytotoxic, partial curve]"
CCOC(=O)c1c(C)n(C)c2ccc(O)cc12,Potency,[1],inactive
O=c1cc(-c2cccc3c2Sc2ccccc2S3)oc(N2CCOCC2)c1,Potency,[1],"inconclusive: 37.2 µM [inhibitor, single point]"
same,Potency,[3],"inconclusive: 18.7 µM [cytotoxic, partial curve]"
CO[C@H]1C[C@@H]2CC[C@@H](C)[C@@](O)(O2)C(=O)C(=O)N2CCCC[C@@H]2C(=O)O[C@H]([C@H](C)C[C@@H]2CC[C@H](OC(=O)C(C)(CO)CO)[C@H](OC)C2)CC(=O)[C@H](C)C=C(C)[C@@H](O)[C@@H](OC)C(=O)[C@H](C)C[C@H](C)C=CC=CC=C1C,Potency,[1],"inconclusive: 37.2 µM [inhibitor, single point]"
same,Potency,[8],"inconclusive: 0.0117 µM [cytotoxic, full curve]"
same,Potency,[3],"inconclusive: 37.2 µM [cytotoxic, single point]"
same,Potency,[9],"inconclusive: 29.6 µM [cytotoxic, single point]"
same,Potency,[6],"inconclusive: 41.8 µM [cytotoxic, partial curve, poor fit]"
same,Potency,[7],active: 30.6 µM
CCCOc1ccc2nc(NC(=O)OC)[nH]c2c1,Potency,[1],"inconclusive: 3.55 µM [inhibitor, full curve, poor fit] and active: 46.9 nM"
same,Potency,[8],active: 187 nM and active: 131 nM
same,Potency,[5],"inconclusive: 26.6 µM [cytotoxic, single point]"
same,Potency,[6],"inconclusive: 0.0037 µM [cytotoxic, full curve, poor fit]"
same,Potency,[7],active: 123 nM and active: 27.3 nM
COC[C@@H](c1ccc(C(F)(F)F)cc1)N1CCN(C2(C)CCN(C(=O)c3c(C)ncnc3C)CC2)C[C@H]1C,Potency,[1],inactive
same,Potency,[3],"inconclusive: 37.2 µM [cytotoxic, single point]"
same,Potency,[5],"inconclusive: 18.7 µM [cytotoxic, partial curve]"
same,Potency,[9],"inconclusive: 1.18 µM [cytotoxic, full curve]"
N#CNC(=NCCCCCCOc1ccc(Cl)cc1)Nc1ccncc1,Potency,[1],inactive
same,Potency,[3],active: 14.8 µM
same,Potency,[5],active: 0.001 µM
same,Potency,[6],active: 0.0033 µM
CC(C)n1cnc2c(NCCCCCCNC(=O)OC(C)(C)C)nc(NCCO)nc21,Potency,[1],inactive
same,Potency,[3],"inconclusive: 29.6 µM [cytotoxic, single point]"
same,Potency,[5],"inconclusive: 18.7 µM [cytotoxic, partial curve]"
same,Potency,[6],"inconclusive: 33.2 µM [cytotoxic, single point]"
same,Potency,[7],"inconclusive: 24.3 µM [cytotoxic, single point]"
Cc1nc(Nc2ncc(C(=O)Nc3c(C)cccc3Cl)s2)cc(N2CCN(CCO)CC2)n1,Potency,[1],"inconclusive: 37.2 µM [inhibitor, single point]"
same,Potency,[8],"inconclusive: 23.6 µM [cytotoxic, single point]"
same,Potency,[7],"inconclusive: 30.6 µM [cytotoxic, partial curve] and inconclusive: 21.9 µM [cytotoxic, partial curve, poor fit]"
O=C(Nc1cccc(Br)c1)c1cccc(S(=O)(=O)N2CCCCCC2)c1,Potency,[1],"inconclusive: 37.2 µM [inhibitor, partial curve, poor fit]"
same,Potency,[3],"inconclusive: 23.5 µM [cytotoxic, single point]"
same,Potency,[5],"inconclusive: 16.6 µM [cytotoxic, partial curve]"
same,Potency,[9],"inconclusive: 18.7 µM [cytotoxic, partial curve]"
same,Potency,[6],"inconclusive: 37.2 µM [cytotoxic, single point]"
same,Potency,[7],"inconclusive: 24.3 µM [cytotoxic, single point]"
CCCn1c(=O)c2[nH]c(-c3cnn(Cc4cccc(C(F)(F)F)c4)c3)nc2n(CC)c1=O,Potency,[1],inactive
same,Potency,[3],inactive
same,Potency,[5],"inconclusive: 18.7 µM [cytotoxic, partial curve]"
same,Potency,[9],"inconclusive: 18.7 µM [cytotoxic, single point]"
same,Potency,[6],"inconclusive: 20.9 µM [cytotoxic, partial curve, poor fit]"
same,Potency,[7],"inconclusive: 24.3 µM [cytotoxic, partial curve, poor fit]"
Cc1cccc(C)c1OCC(=O)N[C@@H](Cc1ccccc1)[C@@H](O)C[C@H](Cc1ccccc1)NC(=O)[C@H](C(C)C)N1CCCNC1=O,Potency,[1],"inconclusive: 37.2 µM [inhibitor, single point]"
same,Potency,[3],"inconclusive: 37.2 µM [cytotoxic, single point]"
same,Potency,[5],"inconclusive: 29.6 µM [cytotoxic, single point] and inconclusive: 29.9 µM [cytotoxic, single point]"
same,Potency,[9],"inconclusive: 33.5 µM [cytotoxic, single point]"
same,Potency,[6],"active: 29.6 µM and inconclusive: 33.5 µM [cytotoxic, single point]"
same,Potency,[7],"inconclusive: 24.3 µM [cytotoxic, partial curve, poor fit] and inconclusive: 38.9 µM [cytotoxic, partial curve, poor fit]"
